Assay results from publication PMC4336329 (PLoS ONE, 2015).
The campaign covered roughly 310,000 compounds. About 2,200 (0.71%) showed an effect of 50% or more. Effects have a minus sign here. The list shows a part of the results.

molecular target: human ether-à-go-go-related gene (hERG) potassium channel (human, UniProt Q12809); assay: primary screen, population patch clamp on CHO cells stably expressing hERG
Sequence (Q12809 whole entry, looked up): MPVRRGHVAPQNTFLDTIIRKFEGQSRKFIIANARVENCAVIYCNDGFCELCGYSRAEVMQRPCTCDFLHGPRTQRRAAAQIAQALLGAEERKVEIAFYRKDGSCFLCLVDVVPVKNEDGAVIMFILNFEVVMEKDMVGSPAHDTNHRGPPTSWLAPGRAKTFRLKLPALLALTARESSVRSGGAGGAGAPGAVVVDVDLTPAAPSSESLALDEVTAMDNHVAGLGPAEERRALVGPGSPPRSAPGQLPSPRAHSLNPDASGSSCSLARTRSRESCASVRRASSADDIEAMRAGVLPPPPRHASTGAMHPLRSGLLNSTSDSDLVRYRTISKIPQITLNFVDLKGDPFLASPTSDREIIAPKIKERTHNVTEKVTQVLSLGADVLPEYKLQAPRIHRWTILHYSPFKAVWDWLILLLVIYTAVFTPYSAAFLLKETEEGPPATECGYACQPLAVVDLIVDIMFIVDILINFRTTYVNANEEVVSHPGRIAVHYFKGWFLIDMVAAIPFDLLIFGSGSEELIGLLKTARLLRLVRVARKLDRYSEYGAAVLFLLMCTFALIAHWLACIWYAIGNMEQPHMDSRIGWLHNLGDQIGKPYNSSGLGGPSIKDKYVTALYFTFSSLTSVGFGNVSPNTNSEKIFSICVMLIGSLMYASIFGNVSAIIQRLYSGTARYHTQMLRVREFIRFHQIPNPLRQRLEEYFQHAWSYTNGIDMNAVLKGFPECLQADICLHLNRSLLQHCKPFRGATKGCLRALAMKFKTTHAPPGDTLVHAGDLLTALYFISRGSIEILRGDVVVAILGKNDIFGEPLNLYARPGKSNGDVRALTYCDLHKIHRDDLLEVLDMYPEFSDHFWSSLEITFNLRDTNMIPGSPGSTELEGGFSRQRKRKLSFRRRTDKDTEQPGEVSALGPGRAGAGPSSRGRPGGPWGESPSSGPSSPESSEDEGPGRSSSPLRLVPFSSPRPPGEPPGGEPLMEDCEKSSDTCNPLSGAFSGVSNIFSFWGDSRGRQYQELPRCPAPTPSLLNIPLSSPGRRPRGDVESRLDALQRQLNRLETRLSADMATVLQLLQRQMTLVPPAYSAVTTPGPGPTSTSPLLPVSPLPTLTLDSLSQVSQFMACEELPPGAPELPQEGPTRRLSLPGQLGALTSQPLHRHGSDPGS

SMILES	hERG current change (%, negative = inhibition) at 1uM
CO/C([O-])=N/c1c[n+](-c2ccc(C)cc2)no1	-4.2%
CCC(=O)c1ccc(OCCN2CCOCC2)cc1	-10.3%
CCC1CO/C(=C(\C(Cl)=C(Cl)Cl)[N+](=O)[O-])N1 (stereo not shown)	4.56%
CC(=O)c1ccc(OCC(=O)NCC2(N3CCCCC3)CCCCC2)cc1	17.5%
O=C(CCCC(=O)N(c1ccc2c(c1)OCCO2)C(C(=O)NC1CCCCC1)c1ccc(Cl)cc1)Nc1ccccn1 (stereo not shown)	11.1%
Cn1nc(OCC(=O)O)cc1C(F)(F)F	11.1%
CCOC(=O)c1c(O)c2ccccc2oc1=O	10.3%
CCCNC(=O)c1ccccc1NC(=O)c1ccc(CSc2ccccc2)cc1	4.11%
COc1ccc(CCNC(=O)c2nnn(CC(=O)Nc3ccccc3)c2N)cc1OC	8.46%
COc1cc(Cl)c(CN2CCCC(CO)(Cc3ccccc3)C2)cc1OC (stereo not shown)	-2.72%
Cc1ccc(CN(C(=O)C(F)(F)F)C(C(=O)NC2CCCCC2)c2ccco2)cc1 (stereo not shown)	6.67%
CC1CCCC(NC(=O)Nc2cccs2)C1C (stereo not shown)	5.11%
N/C(Cc1ccc([N+](=O)[O-])cc1)=N\OC(=O)C(c1ccccc1)c1ccccc1	-33%
COc1ccc(CCNC(=O)COc2cc(C)cc3oc(=O)cc(C)c23)cc1OC	5.21%
COc1ccc(-c2[nH]ncc2CN(C)CCN2CCOCC2)cc1F	13.9%
O=[N+]([O-])c1cc(-c2n(-c3ccccn3)c3ccccc3[n+]2-c2ccccn2)ccc1Cl.[I-]	6.8%
COc1ccc(CCC(=O)NC2=NCCS2)cc1OC	8.4%
CCOC(=O)C1=C(N)OC2=C(C(=O)CC(C)(C)C2)C1c1ccoc1 (stereo not shown)	-21%
CC(CCCCCCCCC(=O)O)N(CCO)C(=O)OC(C)(C)C (stereo not shown)	9.6%
CN(C)c1ccc(CNC(=O)c2ccc(CNc3c(N4CCCCC4)c(=O)c3=O)cc2)cc1	9.94%
Cc1cc(C(=O)COC(=O)Cc2ccc(Br)cc2)c(C)n1C	16.6%
CCOc1ncccc1C(=O)OCc1ccc(C(=O)OC)o1	5.37%
CCC(C)NC(=O)C(CCSC)NC(=O)c1ccccc1 (stereo not shown)	8.78%
O=[N+]([O-])c1ccc(-c2ncc(-c3ccc(Br)cc3)o2)cc1	15.6%
CC12CN(Cc3ccccc3)CC(C)(CN(Cc3ccccc3)C1)C2=NO	-9.72%
